Source: PubChem BioAssay (NCATS)
Some of the results follow. The main result of the screen is listed elsewhere. These columns were measured beside it and carry no call. Most of these compounds were active or inconclusive in the main read-out, so they are no random draw. Words in brackets tell the shape of the fitted curve; partial curves, single points and poor fits give uncertain potencies.
Tags give direction and shape of the fitted curve.

Assay: Cell-based coincidence reporter assay to measure PMP22 gene transcription in S16 Pmp22-F2sN cells - Confirmatory screen (AID 1508646)
Conditions: S16 Schwann cells Pmp22-F2sN, dual luciferase, 24 h; measured here: FLuc reporter channel
Excerpt: Assay Provider: Jim Inglese Ph.D. National Center for Advancing Translational Science, National Institutes of Health, Rockville, MD CMT is a heterogeneous group of neurological disorders that affect approximately 1 in 2,500 people. In particular, the most common form of CMT, CMT1A is genetically linked to the duplication of the PMP22 gene which leads to Schwann cell overexpression, thus manifesting itself as a typical case of dose-sensitive diseases. To identify small molecule compounds that can mediate the expression of PMP22 we developed a phenotypic assay screening strategy by utilizing genome editing techniques to construct Schwann cell lines containing novel reporter technology to monitor the transcriptional or translational regulation of PMP22. For high sensitivity we use a bioluminescent reporter system embedded in the 3' UTR of the PMP22 gene (S16(c9) Pmp22-F2sN) to identify compounds that inhibit gene expression. […] We can further discriminate the effect of all transcriptionally active molecules on PMP22 translation or stability with an assay that incorporates a short NLuc peptide (HiBiT) at the C-terminus of expressed PMP22 (S16(f8) PMP22-HiBiT) allowing alpha complementation and luminescence detection of membrane-associated PMP22 protein. These assays were screened against the NCATS Sytravon Library Collection. Miniaturization of these assays to 1536-well plate format for quantitative high throughput screening (qHTS) yielded rich data sets immediately from the qHTS assay (S16(c9) Pmp22-F2sN), when compared with data from a cell viability assay (Cell TiterGlo) to identify compounds that decreased the output signals through cellular toxicity to streamline the selection process of actives for subsequent characterization using the HiBiT assay (S16(f8) PMP22-HiBiT).
Cell-based coincidence reporter assay to measure PMP22 gene transcription in S16 Pmp22-F2sN cells PROTOCOL TABLE (format as described by Inglese J, Shamu CE and Guy RK. 2007) SEQUENCE No. (e.g., 1, 2, 3, etc.); PARAMETER (e.g., Cells, Incubation, Reagent, etc.); VALUE and DESCRIPTION. 1. Cells. Add 500-1,000 cells in 4 uL in growth media (DMEM High Glucose, No Phenol Red media + 10% heat-inactivated FBS + 1% Pen/Strep supplemented media) per well into Greiner 1536-well white/solid bottom high base, TC-treated plates. 2. Compounds. Library compounds and controls added at 23nL per well, transferred by Pin Tool. 3. Incubation. Incubate plates at 37C, 5% CO2, 95% RH for 24 h. 4. Reagent. Add 3.5uL Nano-Glo Dual-Luciferase Reporter Assay System reagent 1: Lysis and FLuc reagent per well of Greiner 1536-well plates. 5. Incubation. Incubate plates at room temperature for 10 min., protect from light. 6. Detector. FLuc luminescence measured using CCD-based camera (Viewlux). 7. Reagent. Add 3.5uL Nano-Glo Dual-Luciferase Reporter Assay System reagent 2: Stop&Glo reagent per well of Greiner 1536-well plates. 8. Incubation. Incubate plates at room temperature for 10 min., protect from light. 9. Detector. NLuc luminescence measured using CCD-based camera (Viewlux). NOTES (numbers refer to Sequence numbers above; values are from representative experiments) 6. Luminescence Read #1 (FLuc): Clear filter; Exposure = 10 sec, Gain = High, Speed = Slow, Binning = 2X 9. Luminescence Read #2 (NLuc): Clear filter; Exposure = 1 sec, Gain = High, Speed = Slow, Binning = 2X REFERENCES: 1. Inglese J, Shamu CE and Guy RK, Reporting data from high throughput screening of small molecule libraries, Nature Chemical Biology, 2007, 3(8): 438-441. doi.org/10.1038/nchembio0807-438 2. Yasgar A, Shinn P, Jadhav A, Auld DS, Michael S, Zheng W, Austin CP, Inglese J and Simeonov A, Compound Management for Quantitative High-Throughput Screening. J. Assoc. Lab. Auto., 2008, 13: 79-89. doi: 10.1016/j.jala.2007.12.004
With `CCOC(=O)c1c(C)[nH]c(CCC(=O)NCCCN2CCN(c3cccc(Cl)c3)CC2)c1C` the AC50 was 27.3 µM [falling, partial curve]. In the case of `CCOCCCn1c(=N)c(C(=O)NC2CCCC2)cc2c(=O)n3cccc(C)c3nc21`, the AC50 is reported as 8.62 µM [falling, partial curve]. For `COc1cccc(CNC(=O)Nc2ccc3c(c2)N(C)C(=O)c2ccccc2S3)c1`, the AC50 was 27.3 µM [falling, single point]. For `Cc1cccc(N2CCN(C(=O)C3CCCN(S(=O)(=O)c4ccc5c(c4)oc(=O)n5C)C3)CC2)c1C` (stereo not given), the AC50 was 21.7 µM [falling, partial curve]. With `COc1ccc(OC)c(NC(=O)CSc2c3c(nc4ccccc24)CCCC3)c1` the AC50 was 12.2 µM [falling, partial curve]. In the case of `COc1cc2c(=O)c(C(=O)c3ccc(C)c(C)c3)cn(Cc3ccccc3F)c2cc1OC`, the AC50 is reported as 24.3 µM [falling, partial curve]. With `COc1cc(NS(=O)(=O)c2ccc3[nH]c4c(c3c2)CCCC4)cc(OC)c1OC` the AC50 was 24.3 µM [falling, partial curve, poor fit]. With `Cn1nc(C(=O)NCc2ccc(Cl)cc2)c2c1-c1ccccc1S(=O)(=O)C2` the AC50 was 27.3 µM [falling, single point]. In the case of `CCC1CCCCN1CCCNC(=O)c1ccc2c(c1)N(Cc1ccccc1F)C(=O)c1ccccc1S2(=O)=O` (stereo not given), the AC50 is reported as 21.7 µM [falling, partial curve]. With `Cc1cc(C)cc(Nc2cc(C(=O)NCCCN(C)C3CCCCC3)c3ccccc3n2)c1` the AC50 was 15.3 µM [falling, full curve]. For `CCc1nnc(SCC(=O)N(C)c2ccccc2)c2cc3sccc3n12`, the AC50 was 21.7 µM [falling, partial curve]. For `Cc1ccc(Nc2c3c(nc4ccccc24)CCC3)cc1F`, the AC50 was 24.3 µM [falling, partial curve]. For `COc1cc(-c2noc(-c3ccc(NCc4ccco4)c([N+](=O)[O-])c3)n2)cc(OC)c1OC`, the AC50 was 10.9 µM [falling, full curve, poor fit]. With `CCc1ccc(NCc2cc3cc(OC)c(OC)cc3n(CC(=O)Nc3cc(C)ccc3C)c2=O)cc1` the AC50 was 34.3 µM [falling, single point]. For `CCOC(=O)c1cccc(NC(=O)c2cc3cc4ccc(C)cc4nc3s2)c1`, the AC50 was 19.3 µM [falling, partial curve]. With `CCCN1C(=O)C(O)(CC(=O)c2ccc(CC)cc2)c2cc(Br)ccc21` (stereo not given) the AC50 was 24.3 µM [falling, partial curve, poor fit]. For `N#Cc1c(C(F)(F)F)cc(-c2cccs2)nc1SCC(=O)Nc1ccc(Cl)cc1`, the AC50 was 19.3 µM [falling, partial curve, poor fit]. In the case of `Cc1ccc(-n2nc3c(N4CCC(C(=O)NCCc5ccccc5C)CC4)nnc(C)c3c2C)cc1`, the AC50 is reported as 19.3 µM [falling, partial curve]. With `CCn1cc(C(=O)NCCc2ccc(OC)c(OC)c2)c(=O)c2cc(S(=O)(=O)N3CCCCCC3)ccc21` the AC50 was 27.3 µM [falling, partial curve, poor fit]. With `Cc1ccccc1-n1c(SCC(=O)c2ccccc2)nnc1-c1ccc(F)cc1` the AC50 was 27.3 µM [falling, single point].

Same assay, conditions: S16 Schwann cells Pmp22-F2sN, dual luciferase, 24 h; measured here: NLuc reporter channel
With `CCOC(=O)c1c(C)[nH]c(CCC(=O)NCCCN2CCN(c3cccc(Cl)c3)CC2)c1C` the AC50 was 34.3 µM [falling, partial curve]. With `CCOCCCn1c(=N)c(C(=O)NC2CCCC2)cc2c(=O)n3cccc(C)c3nc21` the AC50 was 17.2 µM [falling, partial curve]. For `COc1cccc(CNC(=O)Nc2ccc3c(c2)N(C)C(=O)c2ccccc2S3)c1`, the AC50 was 43.2 µM [falling, single point]. For `Cc1cccc(N2CCN(C(=O)C3CCCN(S(=O)(=O)c4ccc5c(c4)oc(=O)n5C)C3)CC2)c1C` (stereo not given), the AC50 was 24.3 µM [falling, partial curve]. For `COc1ccc(OC)c(NC(=O)CSc2c3c(nc4ccccc24)CCCC3)c1`, the AC50 was 12.2 µM [falling, partial curve]. With `COc1cc2c(=O)c(C(=O)c3ccc(C)c(C)c3)cn(Cc3ccccc3F)c2cc1OC` the AC50 was 24.3 µM [falling, partial curve]. With `COc1cc(NS(=O)(=O)c2ccc3[nH]c4c(c3c2)CCCC4)cc(OC)c1OC` the AC50 was 24.3 µM [falling, partial curve]. In the case of `Cn1nc(C(=O)NCc2ccc(Cl)cc2)c2c1-c1ccccc1S(=O)(=O)C2`, the AC50 is reported as 34.3 µM [falling, single point]. With `CCC1CCCCN1CCCNC(=O)c1ccc2c(c1)N(Cc1ccccc1F)C(=O)c1ccccc1S2(=O)=O` (stereo not given) the AC50 was 24.3 µM [falling, partial curve]. For `Cc1cc(C)cc(Nc2cc(C(=O)NCCCN(C)C3CCCCC3)c3ccccc3n2)c1`, the AC50 was 15.3 µM [falling, full curve]. In the case of `CCc1nnc(SCC(=O)N(C)c2ccccc2)c2cc3sccc3n12`, the AC50 is reported as 19.3 µM [falling, partial curve, poor fit]. For `Cc1ccc(Nc2c3c(nc4ccccc24)CCC3)cc1F`, the AC50 was 27.3 µM [falling, partial curve, poor fit]. With `COc1cc(-c2noc(-c3ccc(NCc4ccco4)c([N+](=O)[O-])c3)n2)cc(OC)c1OC` the AC50 was 15.3 µM [falling, full curve, poor fit]. In the case of `CCc1ccc(NCc2cc3cc(OC)c(OC)cc3n(CC(=O)Nc3cc(C)ccc3C)c2=O)cc1`, the AC50 is reported as 34.3 µM [falling, single point]. With `COc1ccc(NCc2cc3cc4c(cc3n(CC(=O)Nc3ccc(F)cc3F)c2=O)OCO4)cc1` the AC50 was 43.2 µM [falling, single point]. For `CCOC(=O)c1cccc(NC(=O)c2cc3cc4ccc(C)cc4nc3s2)c1`, the AC50 was 19.3 µM [falling, partial curve]. In the case of `CCCN1C(=O)C(O)(CC(=O)c2ccc(CC)cc2)c2cc(Br)ccc21` (stereo not given), the AC50 is reported as 21.7 µM [falling, partial curve, poor fit]. In the case of `N#Cc1c(C(F)(F)F)cc(-c2cccs2)nc1SCC(=O)Nc1ccc(Cl)cc1`, the AC50 is reported as 24.3 µM [falling, partial curve]. For `Cc1ccc(-n2nc3c(N4CCC(C(=O)NCCc5ccccc5C)CC4)nnc(C)c3c2C)cc1`, the AC50 was 27.3 µM [falling, partial curve]. With `Cc1ccccc1-n1c(SCC(=O)c2ccccc2)nnc1-c1ccc(F)cc1` the AC50 was 21.7 µM [falling, partial curve].
